Hit rate of the full screen: of about 310,000 compounds, about 14,000 (4.5%) showed an effect of 50% or more. Effects have a minus sign here. The list shows a part of the results.
Target: human ether-à-go-go-related gene (hERG) potassium channel (human, UniProt Q12809)
Experiment: primary screen, population patch clamp on CHO cells stably expressing hERG
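Also: peak tail current of the secondary pulse compared with the same well before compound.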

Sequence of human ether-à-go-go-related gene (hERG) potassium channel (Q12809 whole entry, looked up): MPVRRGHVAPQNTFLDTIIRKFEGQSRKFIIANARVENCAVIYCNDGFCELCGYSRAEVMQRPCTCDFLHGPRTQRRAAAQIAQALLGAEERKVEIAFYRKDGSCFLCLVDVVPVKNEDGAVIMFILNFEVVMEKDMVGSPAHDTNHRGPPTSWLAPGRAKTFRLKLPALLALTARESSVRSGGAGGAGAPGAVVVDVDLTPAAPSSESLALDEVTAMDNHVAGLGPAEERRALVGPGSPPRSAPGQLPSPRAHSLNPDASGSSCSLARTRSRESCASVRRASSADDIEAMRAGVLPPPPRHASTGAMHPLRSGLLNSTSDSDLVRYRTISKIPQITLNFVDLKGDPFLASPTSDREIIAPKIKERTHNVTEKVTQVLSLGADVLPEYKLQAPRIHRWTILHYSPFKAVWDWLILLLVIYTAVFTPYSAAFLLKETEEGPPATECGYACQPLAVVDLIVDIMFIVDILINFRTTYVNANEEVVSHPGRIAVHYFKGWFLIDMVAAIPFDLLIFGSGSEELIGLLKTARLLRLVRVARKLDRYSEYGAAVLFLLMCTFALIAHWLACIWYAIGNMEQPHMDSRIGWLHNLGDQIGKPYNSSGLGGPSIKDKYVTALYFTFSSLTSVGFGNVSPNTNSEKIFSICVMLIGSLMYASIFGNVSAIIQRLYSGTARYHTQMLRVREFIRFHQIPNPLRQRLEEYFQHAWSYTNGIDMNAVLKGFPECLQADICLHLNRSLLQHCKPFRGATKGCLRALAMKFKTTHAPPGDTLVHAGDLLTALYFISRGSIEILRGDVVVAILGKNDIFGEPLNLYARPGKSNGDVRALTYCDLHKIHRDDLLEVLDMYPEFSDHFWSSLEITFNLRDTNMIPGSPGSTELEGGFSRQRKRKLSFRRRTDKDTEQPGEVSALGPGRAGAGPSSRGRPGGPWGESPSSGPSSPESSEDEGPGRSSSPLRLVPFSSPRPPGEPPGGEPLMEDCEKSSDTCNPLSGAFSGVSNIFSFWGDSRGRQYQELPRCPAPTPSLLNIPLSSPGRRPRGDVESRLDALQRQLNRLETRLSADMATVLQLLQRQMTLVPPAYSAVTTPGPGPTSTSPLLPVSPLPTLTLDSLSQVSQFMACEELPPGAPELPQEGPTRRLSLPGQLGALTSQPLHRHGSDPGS

SMILES | hERG current change (%, negative = inhibition) at 10uM
Cc1cc(C)nc(N/N=C/c2ccc3c(c2)OCCO3)n1 | 21%
O=C(O)CSc1nnc(CNc2cccc(C(F)(F)F)c2)n1Cc1ccco1 | 17.6%
Cc1cc(C)n(C(=O)CCCn2cc([N+](=O)[O-])cn2)n1 | -22%
CCCCCc1cc(=O)oc2c(C(CCN(CC)CC)c3cc(OC)c(OC)c(OC)c3)c(OC)cc(OC)c12 (centres unmarked) | -38.2%
CCN(c1ccccc1)S(=O)(=O)c1ccc(C(=O)Nc2nnc(COC)o2)cc1 | 15.6%
COc1ccccc1CNC(=O)COn1nnc2ccc(S(=O)(=O)N3CCOCC3)cc21 | 5.9%
COc1ccc(NC(=S)N2CCN(c3ccccn3)CC2)cc1 | -0.967%
CN(C)S(=O)(=O)c1ccc(N2CCOCC2)c(C(=O)O)c1 | 11.4%
O=C(NN1C(=O)C2C(C1=O)C1C=CC2C12CC2)c1cccnc1 (centres unmarked) | 17%
O=C(Nc1ccc(Cl)c(Cl)c1)c1ccc(Cl)c(Cl)c1 | -4.2%
O=C(Cc1cccs1)NCc1cc(Cl)cc(Cl)c1 | 3.23%
O=C(Nc1cccc2ccccc12)/C(Cl)=C/c1ccccc1 | -3.45%
C/C(CC(=O)Nc1ccc(F)cc1)=N\NC(=O)Cc1csc(N)n1 | 15.8%
Cc1cc(C=O)c2c(c1)C=CC1(Oc3ccccc3C(=O)N1C)O2 (centres unmarked) | -6.89%
O=C(CN1C(=O)C2C3C=CC(C3)C2C1=O)Nc1ccc(F)cc1 (centres unmarked) | 11.9%
Cn1c(/C=C/c2cccc([N+](=O)[O-])c2)c([N+](=O)[O-])c(=O)n(C)c1=O | -37.2%
COc1ccc(CSc2nnnn2Cc2ccccc2)cc1OC | -43.2%
O=C(c1cnn2c1NC(c1ccco1)CC2C(F)(F)F)N1CCN(c2cccc(Cl)c2)CC1 (centres unmarked) | -18.5%
O=C(CSCc1ccc(Cl)cc1)N/N=C/c1ccc(Cl)cc1Cl | 0.595%
O=C(Nc1ccccc1)c1cccnc1Nc1ccccc1 | -3.98%
CCOC(=O)c1c(C)[nH]c(C(=O)OCCOc2ccc(Cl)cc2)c1C | 7.83%
CCC(=NCc1cccnc1)c1c(O)n(Cc2ccccc2)c(=O)[nH]c1=O | -44.6%

SMILES | hERG current change (%, negative = inhibition) at 10uM
O=C(OCC(=O)N(CCc1ccccc1)Cc1ccccc1)c1ccccc1[N+](=O)[O-] | 1.95%
O=C1CN(C(=O)c2ccccc2F)C(c2ccc(F)cc2)c2cc(F)ccc2N1 (centres unmarked) | -11.7%
CN(C)c1oc(-c2cccs2)nc1C#N | 3.2%
O=c1ccn(-c2cccc(C(F)(F)F)c2)nc1-c1ccn(-c2cccc(Cl)c2)n1 | -10.3%
O=C(CSc1nc(Cc2ccccc2)nc2ccccc12)c1ccc2c(c1)OCCO2 | -2.24%
COc1cc(C(=O)c2cocc2C(=O)c2ccc3c(c2)OCO3)cc(OC)c1OC | -0.222%
CN1CCN(c2ccc(NC(=S)NC(=O)c3cccc4c(Cl)cccc34)cc2)CC1 | 0.63%
O=C(CCN1CCN(c2ccc([N+](=O)[O-])cc2)CC1)c1ccc(Cl)cc1 | -72.4%
COc1ccc(N2CCN(CC(O)COc3ccc(C)c(C)c3)CC2)cc1.Cl (centres unmarked) | -43.7%
O=C(O)CCCC(=O)Nc1cccc2cccnc12 | 17.1%
CCC(C)C1NC(=O)C(C(C)=O)=C1O (centres unmarked) | 1.82%
NNC(=O)c1ccc(COc2ccc(Br)cc2)o1 | 4.61%
COC(=O)C1=C(COc2ccccc2)NC(=O)NC1c1ccc(Br)cc1 (centres unmarked) | 0.599%
CN(C)Cc1cc(C(C)(C)C)c(O)c(C(C)(C)C)c1 | -26%
COc1ccc(CCN(Cc2ccccn2)C(=S)Nc2cccc(SC)c2)cc1OC | -37.3%
O=C(CN1C(=O)C(c2ccccc2)Oc2cccnc21)NCc1ccccc1F (centres unmarked) | 6.46%
COC(=O)c1cccc(NC(=O)CSc2ncn[nH]2)c1 | 0.85%
CSc1ccc(Cl)c(C(=O)NC2CCCC2)c1 | 7.82%
O=C(NC1CCS(=O)(=O)C1)OC1CCCCC1 (centres unmarked) | 9.09%
O=C(Nc1cccc(S(=O)(=O)N2CCCC2)c1)c1cc(=O)[nH]c2ccccc12 | -3.55%
COc1ccc(CCN2CC(C(=O)Nc3ccc(S(C)(=O)=O)cc3)CC2=O)cc1OC (centres unmarked) | -1.13%
CC(C)(C)NC(=O)/C(=C\c1ccco1)NC(=O)c1ccco1 | 10.7%

SMILES | hERG current change (%, negative = inhibition) at 10uM
CCC(=O)CC(c1ccccc1)c1c([O-])c2ccccc2sc1=O.[Na+] (centres unmarked) | -5.79%
CCSc1nnc(NC(=O)CSc2nc3c(c(=O)n2CCOC)SC(C)C3)s1 (centres unmarked) | -18.2%
O=C(NCC1CCCO1)c1cc(C(=O)C2CC2)c[nH]1 (centres unmarked) | -2.79%
CC(C)(C)SCCNC(=O)CN(c1ccc(F)cc1)S(C)(=O)=O | -2.06%
Cc1cc(C)n(CCCNC(=O)c2ccc(C)o2)n1 | -1.15%
COc1cc(OC)cc(C(=O)NCCn2ccc3ccccc32)c1 | 3.65%
CC(C(=O)N1CCc2ccccc21)N1CCN(S(=O)(=O)c2ccc(C(F)(F)F)cc2)CC1 (centres unmarked) | -1.64%
CC(=O)/C(N=Nc1nc2c([nH]1)c(=O)n(C)c(=O)n2C)=C(\C)O | 13.2%
CCn1ncc(CNC(=O)CCSc2nc(-c3ccco3)cc(C(F)(F)F)n2)c1C | -4.57%
N#CCCn1nc(-c2ccccc2)c2ccccc2c1=O | -10.1%
COc1cc(OC)c(NC(=O)c2ccco2)cc1Cl | -14.3%
CCN(C(=O)C(C)Sc1ccc(S(=O)(=O)N2CCN(C)CC2)cn1)c1ccccc1 (centres unmarked) | -11.3%
N=c1c(S(=O)(=O)c2ccccc2)cc2c(=O)n3ccccc3nc2n1C1CCCC1 | 1.62%
S=C(NCc1ccco1)N1CCN(c2cccc(Cl)c2)CC1 | -13.7%
COc1ccc(OC)c(NC(=O)CN2C(=O)C(=O)N(Cc3ccccc3)C2=O)c1 | 4.62%
COc1ccc(-c2nn(-c3ccccc3)cc2/C=N/NC(=O)c2cccc(S(=O)(=O)Nc3ccccc3OC)c2)cc1 | 1.75%
O=C(COC(=O)C1CCN(S(=O)(=O)c2ccc3c(c2)OCCO3)CC1)Nc1cccc2ccccc12 | 11.7%
COc1ccc(OCC(=O)N2CCc3c([nH]c4ccccc34)C2c2ccccn2)cc1 (centres unmarked) | 21.4%
Cc1cc(C(=O)COC(=O)c2cccs2)c(C)n1-c1c(C)n(C)n(-c2ccccc2)c1=O | 0.195%
O=C(CN1C(=O)c2ccccc2C1=O)Nc1ccccc1 | -0.118%
OCc1ccc2c(c1)c(-c1ccc3c(c1)OCCO3)c(-c1ccccc1)n2-c1ccccc1 | 15.8%
O=C(c1cccnc1Nc1ccc2c(c1)CCC2)N1CCOCC1 | -2.98%

SMILES | hERG current change (%, negative = inhibition) at 10uM
O=C(Nc1ccc(N2CCOCC2)cc1)C1CCCN(S(=O)(=O)c2ccccc2)C1 (centres unmarked) | 3.11%
COc1ccccc1C(=O)Nc1nnc(S(=O)(=O)N2CCC(C)CC2)s1 | 6.16%
N#CCc1ccc(OC(=O)c2cccnc2Cl)cc1 | 16.8%
CCN(CCO)C(=S)Nc1cc(S(=O)(=O)N(C)C)ccc1C | 12.2%
O=C(Cn1ccc2ccccc2c1=O)NCCC(=O)N1CCN(C(=O)c2ccco2)CC1 | -5.55%
Cc1cccc(C(=O)NC2CC3CCCC(C2)N3Cc2ccccc2)c1 (centres unmarked) | -40.9%
Cl.O=C(Nc1nc2ccccc2s1)c1ccc2c(c1)OCO2 | -13.3%
CCc1nc(NCc2ccco2)c2oc3ccccc3c2n1.Cl | -19.6%
NC(=O)c1ccc(CN2CCC(Cc3ccccc3)CC2)cc1 | -57.1%
Cc1cc(C)c(C)c(S(=O)(=O)NCc2ccc(C(=O)N3CCOCC3)cc2)c1C | -4.97%
O=C1c2ccccc2CCCC12N=NCC2c1cccc2ccccc12 (centres unmarked) | 9.74%
CCCCN(Cc1cc2ccccc2[nH]c1=O)S(=O)(=O)c1ccc(C)cc1 | -5.71%
Cc1ccc2nc(C)cc(C(=O)OCC(=O)c3ccc(Cl)c([N+](=O)[O-])c3)c2c1 | 4.6%
CCOC(=O)c1sc(=S)n(-c2ccccc2)c1C | 9.67%
CCN(CC)S(=O)(=O)c1ccc(C(=O)OCC(=O)Nc2ccc(-c3nc4ccc(C)cc4s3)cc2)cc1 | -1.97%
CS(=O)(=O)N(CC(=O)N1CCOCC1)Cc1ccc(Cl)cc1 | 4.67%
Clc1ccc(C[n+]2c(-c3ccccc3)cc(-c3ccccc3)cc2-c2ccccc2)cc1.[O-][Cl+3]([O-])([O-])[O-] | -79.5%
Cn1c(SCc2nc3ccccc3[nH]2)nnc1-c1cccnc1 | 10.3%
O=C(COc1ccc(Br)cc1Br)NN1C(=O)c2ccccc2C1=O | -11.9%
O=C(C1CCCN1S(=O)(=O)c1ccc(Cl)c(Cl)c1)N1CCCCC1 (centres unmarked) | 1.18%
